pIC50: −log10 of the molar value. IC50 is the fitted dose that halves viability relative to control wells, and lower means more sensitive; where the fit passes the top or lowest dose, that dose stands as a limit. AUC, from the same fit, is the share of area under the viability curve across the 256-fold dose range; it is 1 without any effect and falls as sensitivity rises. Where the top dose is marked as inferred, it was calculated from the reported fits.
What was measured:
Assay in all cases: Viability of human cancer cell lines after 72 h of drug (GDSC screen)
[1] = compound: O=C(NC1CCNCC1)c1n[nH]cc1NC(=O)c1c(Cl)cccc1Cl [AT-7519]; details: top dose 10.24 µM; top dose inferred
Experimental: (§1)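 Human cancer cell lines in 384-well plates, medium with 10% serum, drug for 72 h over a 256-fold dose range (nine 2-fold or five 4-fold steps up to the top dose). Adherent lines were fixed and stained with the nucleic acid dye Syto60, suspension lines read with resazurin; signal relative to control wells, capped at 0 and 100%. One two-parameter sigmoid per drug and line, fitted in a mixed model over all curves with the slope shared within a line.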

[2] = compound: COc1cc(N2CCN(C)CC2)ccc1Nc1nc(N)c(C(=O)c2c(Cl)cccc2Cl)s1 [XMD14-99]; details: top dose 10.24 µM; top dose inferred
Experimental: as §1

[3] = compound: Cc1cc([N+](=O)[O-])ccc1NS(=O)(=O)c1cc(Cl)ccc1Cl [FH535]; details: top dose 32 µM; top dose inferred
Experimental: as §1

Cell Line	AUC [1]	pIC50 [1]	AUC [2]	pIC50 [2]	AUC [3]	pIC50 [3]
EFM-19 (breast, adherent)	0.758	5.27	0.977	< 4.99	0.635	5.24
CS1 (bone, adherent)	0.684	5.65	0.982	< 4.99	0.691	5.13
VMRC-RCZ (kidney, adherent)	0.744	5.44	0.977	< 4.99	0.701	5.09
PCI-30 (head and neck, adherent)	0.982	< 4.99	0.981	< 4.99	0.939	< 4.49
BCPAP (thyroid, adherent)	0.601	5.93	0.974	< 4.99	0.518	5.65
KYSE-150 (oesophagus, adherent)	0.846	5.15	0.987	< 4.99	0.634	5.34
BICR10 (head and neck, adherent)	0.957	< 4.99	0.985	< 4.99	0.602	5.40
TK (B-cell lymphoma, suspension)	0.846	5.19	0.985	< 4.99	0.707	5.14
VMRC-MELG (melanoma, adherent)	0.908	< 4.99	0.98	< 4.99	0.861	4.53
OVCAR-3 (ovary, adherent)	0.983	< 4.99	0.987	< 4.99	0.666	5.21
CHSA0108 (chondrosarcoma, adherent)	0.509	6.17	0.968	< 4.99	0.764	4.87
SK-LU-1 (lung adenocarcinoma, adherent)	0.817	5.11	0.962	< 4.99	0.495	5.71
NCI-H1651 (lung adenocarcinoma, adherent)	0.915	< 4.99	0.983	< 4.99	0.55	5.56
KP-3 (pancreas, adherent)	0.613	5.85	0.973	< 4.99	0.647	5.26
SNU-398 (liver, adherent)	0.525	6.13	0.985	< 4.99	0.448	5.84
RPMI-7951 (melanoma, adherent)	0.466	6.28	0.953	< 4.99	0.806	4.80
SF295 (glioma, adherent)	0.882	< 4.99	0.984	< 4.99	0.516	5.65
H2461 (mesothelioma, adherent)	0.882	< 4.99	0.983	< 4.99	0.612	5.36
HSC-4 (head and neck, adherent)	0.619	5.82	0.979	< 4.99	0.742	4.90

Cell Line	AUC [1]	pIC50 [1]	AUC [2]	pIC50 [2]	AUC [3]	pIC50 [3]
OVMIU (ovary, adherent)	0.447	6.35	0.978	< 4.99	0.678	5.15
HT-115 (large intestine, adherent)	0.99	< 4.99	0.989	< 4.99	0.911	< 4.49
HuP-T3 (pancreas, adherent)	0.758	5.37	0.978	< 4.99	0.762	4.86
VAL (B-cell lymphoma, suspension)	0.464	6.29	0.922	< 4.99	0.656	5.27
NCI-H2405 (lung adenocarcinoma, adherent)	0.843	5.08	0.985	< 4.99	0.511	5.67
MEL-JUSO (melanoma, adherent)	0.499	6.20	0.959	< 4.99	0.682	5.16
OCUM-1 (stomach, adherent)	0.931	< 4.99	0.981	< 4.99	0.205	6.62
C32 (melanoma, adherent)	0.949	< 4.99	0.986	< 4.99	0.146	6.84
HuCCT1 (biliary tract, adherent)	0.55	6.05	0.96	< 4.99	0.706	5.08
WM-115 (melanoma, adherent)	0.641	5.76	0.962	< 4.99	0.966	< 4.49
COLO-792 (melanoma, adherent)	0.851	5.12	0.951	< 4.99	0.396	5.98
NCI-H2110 (non-small cell lung carcinoma, adherent)	0.595	5.93	0.981	< 4.99	0.636	5.32
NCI-H727 (lung carcinoid, adherent)	0.772	5.16	0.949	< 4.99	0.504	5.69
RPMI-2650 (head and neck, adherent)	0.721	5.54	0.971	< 4.99	0.481	5.75
AsPC-1 (pancreas, adherent)	0.931	< 4.99	0.97	< 4.99	0.778	4.61
CHL-1 (melanoma, adherent)	0.882	5.01	0.984	< 4.99	0.451	5.83
HT-29 (large intestine, adherent)	0.547	6.06	0.92	< 4.99	0.661	5.25
HSC-2 (head and neck, adherent)	0.895	< 4.99	0.988	< 4.99	0.616	5.39
NCI-H2122 (lung adenocarcinoma, adherent)	0.921	< 4.99	0.988	< 4.99	0.419	5.91

Reference: the supplement of paper PMC4967469
